Assay results as given in article PMC4336329 (PLoS ONE, 2015).
Among all 310,000 compounds or so, about 2,200 (0.71%) showed an effect of 50% or more. The effect is printed as a negative number. The list shows a part of the results.

Biological target: human ether-à-go-go-related gene (hERG) potassium channel (human, UniProt Q12809)
Test: primary screen, population patch clamp on CHO cells stably expressing hERG

human ether-à-go-go-related gene (hERG) potassium channel, sequence (Q12809 whole entry, looked up): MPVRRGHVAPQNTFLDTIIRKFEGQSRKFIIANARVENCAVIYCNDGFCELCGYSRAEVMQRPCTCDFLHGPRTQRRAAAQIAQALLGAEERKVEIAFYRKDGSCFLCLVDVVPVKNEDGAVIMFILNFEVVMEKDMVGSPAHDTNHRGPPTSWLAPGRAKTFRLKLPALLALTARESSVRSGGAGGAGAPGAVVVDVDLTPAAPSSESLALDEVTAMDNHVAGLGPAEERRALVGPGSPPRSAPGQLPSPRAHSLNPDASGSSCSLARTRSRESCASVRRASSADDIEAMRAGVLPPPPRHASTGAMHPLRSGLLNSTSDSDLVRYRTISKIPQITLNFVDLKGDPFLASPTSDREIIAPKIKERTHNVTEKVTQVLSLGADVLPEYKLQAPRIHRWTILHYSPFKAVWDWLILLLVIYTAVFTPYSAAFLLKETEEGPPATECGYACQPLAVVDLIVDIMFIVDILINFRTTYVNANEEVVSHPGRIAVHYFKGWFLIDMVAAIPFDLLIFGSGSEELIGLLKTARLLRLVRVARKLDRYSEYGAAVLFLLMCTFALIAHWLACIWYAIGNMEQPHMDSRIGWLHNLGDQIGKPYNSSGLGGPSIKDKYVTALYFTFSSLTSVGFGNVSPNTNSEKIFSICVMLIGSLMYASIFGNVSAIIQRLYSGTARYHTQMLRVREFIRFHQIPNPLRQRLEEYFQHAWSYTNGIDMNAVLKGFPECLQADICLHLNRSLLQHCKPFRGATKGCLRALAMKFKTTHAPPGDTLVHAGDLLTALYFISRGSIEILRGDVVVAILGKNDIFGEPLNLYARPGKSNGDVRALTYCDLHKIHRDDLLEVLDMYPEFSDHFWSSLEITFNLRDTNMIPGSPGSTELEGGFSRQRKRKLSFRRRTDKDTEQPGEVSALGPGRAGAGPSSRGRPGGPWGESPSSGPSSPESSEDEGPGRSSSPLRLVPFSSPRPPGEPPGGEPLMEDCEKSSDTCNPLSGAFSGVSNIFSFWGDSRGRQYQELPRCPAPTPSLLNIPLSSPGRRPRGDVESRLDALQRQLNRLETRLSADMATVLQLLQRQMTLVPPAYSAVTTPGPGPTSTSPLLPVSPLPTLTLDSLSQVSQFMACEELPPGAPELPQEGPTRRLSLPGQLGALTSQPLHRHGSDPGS

| SMILES | hERG current change (%, negative = inhibition) at 1uM [%] |
| --- | --- |
| C=CCOC(=O)C1=C[C@H](c2csc3ccccc23)C[C@H](OCc2ccc(CO)cc2)O1 | 14 |
| NC(=O)c1ccc(NC(=O)CN2CCN(c3ccccc3)CC2)cc1 | 13.5 |
| CCCCCSc1nncc(=O)[nH]1 | -8.26 |
| CCc1ccc(OCCSc2nc3ccccc3n2CCC(=O)O)cc1 | 22.1 |
| O=C1CC2CS(=O)(=O)CC2N1c1ccc(Oc2ccccc2)cc1 (stereo not drawn) | 9.35 |
| N#Cc1ccccc1NC(=O)c1cccc(COc2ccc(Cl)cc2Cl)c1 | 10.7 |
| O=C1CCNc2ccc(-c3ccccc3)cc21 | 3.55 |
| COc1ccc(C(C)NC(=O)C2CCCO2)cc1OC (stereo not drawn) | -0.285 |
| Cc1ccc2oc(=O)c3cc(C(=O)NCCCN4CCc5ccccc5C4)sc3c2c1 | 10.3 |
| CCCCN(CC)CCNC(=O)CNC(=O)Cn1ccc2ccccc2c1=O | 10.2 |
| O=C(NCCCO)C(=O)NCCc1ccc(Cl)cc1 | 5.22 |
| O=C(CCc1ccccc1)NNC(=O)c1cccc(F)c1 | 16.1 |
| O=C(NCCOc1ccccc1F)Nc1ccc(Br)cc1 | 15.6 |
| Cc1ccnc2nc(C(=O)OCC(=O)NCc3cccc(Cl)c3)nn12 | -3.99 |
| N#Cc1nc(-c2ccc(F)cc2)oc1NCc1ccccc1 | 8.86 |
| COc1ccc(Cc2nnc(NC(=O)c3ccccc3Cl)s2)cc1OC | 15.1 |
| CN(Cc1ccccc1)c1c([N+](=O)[O-])c(=O)n(C)c2ccccc12 | 11.3 |
| Fc1ccc(C2=Nc3cccc4cccc(c34)N2)cc1 | 16.6 |
| CCOc1ccc(OCCCCNC(C)(C)C)cc1.O=C(O)C(=O)O | 11.5 |
| Cc1ccccc1C(=O)NC1CCN(CC(=O)Nc2ccc3c(c2)OCCO3)CC1 | 9.88 |
| Cc1ccc(-n2nc(C)c(=O)c(-c3ccccc3)c2NC(=O)C(C)C)cc1 | 16.2 |
| COc1ccc(CCNc2nc(C)cc(=O)[nH]2)cc1OC | -1.28 |
| CC(C)C(=O)Nc1ccc(NC(=O)c2ccccc2Cl)nc1 | 9.57 |

| SMILES | hERG current change (%, negative = inhibition) at 1uM [%] |
| --- | --- |
| CC(=O)Nc1nc(-c2ccccc2)c(-c2ccccc2)o1 | -2.83 |
| Cc1c(C(=O)N/N=C/c2ccccc2)[nH]c2c([N+](=O)[O-])cccc12 | 12.3 |
| COc1ccc(-n2ncc3c2CC(C)(C)CC3NC(=O)CCC2=NNC(=O)CC2)cc1 (stereo not drawn) | 17.7 |
| CN1/C(=C\C(=O)C(F)F)C(C)(C)c2ccccc21 | 6.69 |
| Clc1cccc(N=NN2CCOCC2)c1Cl | 11.4 |
| COC(=O)/C=C1/SC(=NC(=O)c2ccc(F)cc2)NC1=O | -0.886 |
| COc1ccc(CN(Cc2cccnc2)S(=O)(=O)c2ccc(-n3cnnn3)c(C)c2)cc1OC | -12.8 |
| O=C(CSc1nnc(CNC(=O)c2ccc(F)cc2)o1)NCC1CCCO1 (stereo not drawn) | 9.07 |
| COc1ccccc1-c1cc(C(=O)NCc2cccs2)no1 | 9.7 |
| CCN1CCN(c2ccc(NC(=O)c3cccc4ncccc34)cc2)CC1 | 10.3 |
| CCOc1cc(C(=O)NCCCNC(=O)c2cc(OCC)c(OCC)c(OCC)c2)cc(OCC)c1OCC | 22.3 |
| COc1ccccc1C(=O)Nc1nnc(C)s1 | 2.97 |
| COCCCN1CN=C(Nc2nc3ccccc3o2)NC1 | 5.68 |
| Cc1ccc2[nH]c3c(c2c1)CN(C(=O)CN(C)CC1OCCO1)CC3 | 15.1 |
| Cc1cccc(NS(=O)(=O)c2c(C)noc2C)c1 | 11.1 |
| CN(CC(=O)Nc1cccc(F)c1)C(=O)c1cn(-c2ccccc2)nc1-c1cccs1 | 14.1 |
| COc1ccc(OC)c(S(=O)(=O)N2Cc3ccccc3CC2C(=O)Nc2nccs2)c1 (stereo not drawn) | 15.5 |
| COc1ccccc1N1CCN(C(=O)CCNS(=O)(=O)c2ccc(Br)s2)CC1 | -2.71 |
| O=C(Nc1cccn(Cc2c(Cl)cccc2Cl)c1=O)c1ccc(Cl)cc1 | 6.52 |
| C[C@H]1Oc2ccccc2C(=O)C1C(=O)c1ccccc1 (stereo partly drawn) | 1.98 |
| C/C(=N\Nc1ccc([N+](=O)[O-])cc1[N+](=O)[O-])c1cccnc1 | 0.177 |
| COc1cc2c(cc1OC)CN(Cc1nc3ccsc3c(=O)[nH]1)CC2 | 9.04 |
| CCCOc1ccccc1C1C(C(=O)OC)=CN(C(C)C)C=C1C(=O)OC | -18.9 |

| SMILES | hERG current change (%, negative = inhibition) at 1uM [%] |
| --- | --- |
| CCOC(=O)C1=C(N)Oc2ccc3ccccc3c2C1c1cccnc1 (stereo not drawn) | 4.13 |
| CN(C)CCOCCOc1ccc(Cl)c2ccccc12.O=C(O)C(=O)O | 0.948 |
| COP(=O)(OC)c1nc(-c2ccc(C)cc2)oc1N1CCCCC1 | 4.18 |
| O=C(CN1CCN(C(=O)c2ccco2)CC1)Nc1ccc(Br)cc1 | 10.5 |
| CC1Cc2ccccc2N1C(=O)CSc1nnc(-c2ccccc2)c(-c2ccccc2)n1 (stereo not drawn) | 3.77 |
| CCOC(=O)c1cnn(-c2cc(C)nc3c(-c4ccccc4)c(C)nn23)c1N | 9.87 |
| CCCN1Cc2cccc(C(=O)NC(CC(=O)OCC)c3ccc(OC(C)C)cc3)c2C1=O (stereo not drawn) | -6.43 |
| COc1ccc(OCC(=O)NNC(=O)C(=O)Nc2cc(OC)ccc2OC)cc1 | 13.5 |
| O=C(CSC1CC(=O)N(CCc2ccccc2)C1=O)Nc1cccc(Cl)c1 (stereo not drawn) | 8.29 |
| Cn1c(=O)c2c(nc(Br)n2C/C=N/NC(N)=S)n(C)c1=O | 9.12 |
| Cc1ccc2sc3ccc(NC(=O)c4ccccc4Cl)cc3c(=O)c2c1 | 12.1 |
| COc1ccc(CCNC(=O)CCC(=O)N2CCN(S(=O)(=O)c3ccccc3)CC2)cc1OC | 13.2 |
| CC1CCN(C(NC(=O)c2ccco2)C(=O)c2ccccc2)CC1 (stereo not drawn) | -0.99 |
| CC(C)CN(C(=O)c1ccc(N2CCCC2=O)cc1)C1CCS(=O)(=O)C1 (stereo not drawn) | 11.4 |
| CCCCNc1c(-c2ccc(OC)c(SC3CCCCC3)c2)nc2cnccn12.O=C(O)C(F)(F)F | 9.85 |
| Cc1cc(N2CCCCC2)nc(SCC(=O)c2ccccc2)n1 | 12.5 |
| NC(=O)c1ccccc1NC(=O)CN1CCOCC1 | 11.1 |
| O=C(COc1ccc2oc(-c3ccccc3)cc(=O)c2c1)NCc1ccco1 | 17.8 |
| O=C1CC2(CCCC2)C(=O)N1c1ccc(S(=O)(=O)NCC2CC2)cc1Cl | 8.36 |
| Cc1cccc(N(C(=O)Cn2nnc3ccccc32)C(C(=O)NCc2ccco2)c2ccncc2)c1C (stereo not drawn) | 3.44 |
| O=C(Nc1ccc(Cl)c(S(=O)(=O)N2CCOCC2)c1)c1cc(-c2ccccn2)nc2ccccc12 | 2.12 |
| O=C(CCS(=O)(=O)c1cccc2nonc12)N1CCOCC1 | 14.9 |
| Cc1cccc(C)c1NC(=O)CN(C)C(=O)c1ccc(COc2ccccc2)cc1 | 1.39 |

| SMILES | hERG current change (%, negative = inhibition) at 1uM [%] |
| --- | --- |
| Nc1nc(COc2ccc3ccccc3c2)cs1 | -3.78 |
| Cc1noc(NS(=O)(=O)c2ccc(N/C=C/C(=O)c3cccnc3)cc2)c1C | 8.79 |
| CCOC(=O)c1c(C(C)(C)C)oc2ccc(O)cc12 | 8.44 |
| COC(=O)c1cc(C(=O)OC)n(Cc2ccc(Br)cc2)n1 | -5.63 |
| Cl.FC(F)(F)c1ccc(CN2CCNCC2)cc1 | 4.21 |
| CCOCCCN1C(=O)CN(C2CCCCCC2)C(=O)C1c1ccc(OC)cc1 (stereo not drawn) | 10.2 |
| COc1ccc(OCc2cccc(C(=O)Nc3ccc(CN4CCCCC4)cc3)c2)cc1 | -2.8 |
| Cn1c2ccccc2c2cnn(CC(=O)N3CCC4(CC3)OCCO4)c(=O)c21 | -1.85 |
| CCCN(CCO)Cc1ccc(Cl)c(Cl)c1 | -2.47 |
| COc1ccc(S(=O)(=O)N2CCCC(C(=O)N3CCOCC3)C2)cc1Cl (stereo not drawn) | 4.43 |
| Cc1cc(C)c(S(=O)(=O)NC2CC3CCC2C3)c(C)c1 (stereo not drawn) | 11.3 |
| Cc1cc(NC(=O)CSc2nc3cc(C)c(C)cc3cc2C)no1 | 17.1 |
| O=c1[nH]c2c(c3c1CCCC3)CCCC2 | 12.8 |
| Cc1cc(C)cc(NC(=O)NN2C(C)CCCC2C)c1 (stereo not drawn) | 8.12 |
| CC(=O)N1CCC2(CC1)C/C(=N\NC(=S)Nc1ccccc1C)c1cc(O)ccc1O2 | -4.91 |
| Brc1ccc(-c2nn3c(-c4ccccn4)nnc3s2)o1 | -10.4 |
| Cc1cccc(OCCCC(=O)NC(C)C)c1 | 3.35 |
| C[C@H](Cc1ccccc1)Nc1ncnc2c1ncn2[C@@H]1O[C@H](CO)[C@@H](O)[C@H]1O | 11.7 |
| CN1C(=O)C(=Cc2coc3ccccc3c2=O)C(=O)N(C)C1=O | 11.7 |
| Cc1csc(N/N=C/c2ccc(O)c([N+](=O)[O-])c2)n1 | 4.45 |
| CCOC(=O)C1CCCN(C(=O)c2cccc(S(=O)(=O)N(C)c3c(C)n(C)n(-c4ccccc4)c3=O)c2)C1 (stereo not drawn) | -5.33 |
